{
  "source": "paper PMC6919601",
  "about": "“Identification of Plasmodium dipeptidyl aminopeptidase allosteric inhibitors by high throughput screening” (PLoS ONE, 2019)",
  "note": "“And” between values parts separate entries of the source, which are not always exact repeats. Identical values can stand only once. About 230 (0.21%) of roughly 110,000 compounds showed an effect of 50% or more. Some of the results follow.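 Further: 30 min substrate incubation versus DMSO and 10 µM JCP410 controls.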",
  "data": [
    {"molecular_target": "DPAP1 (Plasmodium falciparum, UniProt Q8IIJ9)", "sequence (Q8IIJ9 whole entry, looked up)": "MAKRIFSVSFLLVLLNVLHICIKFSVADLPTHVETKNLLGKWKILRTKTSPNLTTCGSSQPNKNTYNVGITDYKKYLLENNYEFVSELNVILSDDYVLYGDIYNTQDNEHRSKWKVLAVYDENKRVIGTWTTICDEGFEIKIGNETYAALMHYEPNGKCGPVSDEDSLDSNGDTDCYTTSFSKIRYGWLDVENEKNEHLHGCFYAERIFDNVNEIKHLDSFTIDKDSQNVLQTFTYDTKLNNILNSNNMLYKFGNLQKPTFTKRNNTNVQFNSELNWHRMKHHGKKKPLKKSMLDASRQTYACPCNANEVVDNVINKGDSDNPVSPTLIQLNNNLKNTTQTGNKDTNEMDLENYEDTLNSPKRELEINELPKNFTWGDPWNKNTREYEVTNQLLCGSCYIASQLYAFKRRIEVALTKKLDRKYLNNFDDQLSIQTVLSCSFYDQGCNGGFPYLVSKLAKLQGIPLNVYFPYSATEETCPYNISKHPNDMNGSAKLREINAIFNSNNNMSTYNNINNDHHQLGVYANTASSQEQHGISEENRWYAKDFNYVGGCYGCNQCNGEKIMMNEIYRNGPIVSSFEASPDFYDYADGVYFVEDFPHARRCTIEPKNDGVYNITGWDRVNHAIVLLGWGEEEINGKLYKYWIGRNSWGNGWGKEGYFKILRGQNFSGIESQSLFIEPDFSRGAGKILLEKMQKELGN", "assay": "primary screen, percent inhibition; read by cleavage of a fluorogenic dipeptide substrate; higher = more effect of the substance", "parameters": "species or system P. falciparum D10 trophozoite lysates; single well", "values": [
      {"smiles": "Oc1nnc(COc2ccccc2)c2nnn(Cc3ccccc3)c12", "% Inhibition @ 10 uM": "-3.08%"},
      {"smiles": "CC1CC(O)(c2ccccc2)C(C)CN1C(C)(C)C", "note": "(stereo not shown)", "% Inhibition @ 10 uM": "0.605%"},
      {"smiles": "O=C(c1ccc(C(=O)N2CCN(c3ccccc3F)CC2)cc1)N1CCN(c2ccccc2F)CC1", "% Inhibition @ 10 uM": "2.01%"},
      {"smiles": "COc1ccc(CN2CCN(Cc3ccccn3)CC2)c(OC)c1", "% Inhibition @ 10 uM": "-0.231%"},
      {"smiles": "CC(C)C[C@H](NC(=O)c1ccc(-c2ccccc2C(F)(F)F)cc1)C(=O)NCC#N", "% Inhibition @ 10 uM": "0.174%"},
      {"smiles": "O=C(O)CCCNS(=O)(=O)/C=C/c1ccccc1", "% Inhibition @ 10 uM": "-5.38% and -0.615%"},
      {"smiles": "CCOC(=O)c1c(CN2CCN(C)CC2)n(-c2ccccc2)c2ccc(O)cc12", "% Inhibition @ 10 uM": "2.17%"},
      {"smiles": "OCC1CCCN(C2CCN(CCc3ccccc3)CC2)C1", "note": "(stereo not shown)", "% Inhibition @ 10 uM": "-0.0908%"},
      {"smiles": "COC(=O)C1=C(C)NC(=O)C1(NC(=O)c1cccc(C)c1)C(F)(F)F", "note": "(stereo not shown)", "% Inhibition @ 10 uM": "-1.52%"},
      {"smiles": "CCOc1ccccc1NC(=O)c1ccc(C)cc1", "% Inhibition @ 10 uM": "-2.6%"},
      {"smiles": "CC(=O)Nc1cccc(C(=O)N[C@@H](CC(C)C)C(=O)NCC#N)c1", "% Inhibition @ 10 uM": "4.63%"},
      {"smiles": "CCO/C(O)=C(\\C#N)c1cc(-c2ccccc2)nc(-c2ccccc2)n1", "% Inhibition @ 10 uM": "-1.72%"},
      {"smiles": "Cc1ccc2nsnc2c1S(=O)(=O)NC1CC1", "% Inhibition @ 10 uM": "3.73%"},
      {"smiles": "Cc1c(CC(=O)NCCc2ccccc2)c(=O)oc2cc(O)ccc12", "% Inhibition @ 10 uM": "4.13%"},
      {"smiles": "Cc1cn(CNC(=O)c2ccccc2)c(=O)[nH]c1=O", "% Inhibition @ 10 uM": "1.92%"},
      {"smiles": "Cc1ccc(C(=O)c2cnc3ccccc3c2N2CCN(C)CC2)cc1", "% Inhibition @ 10 uM": "-0.743%"},
      {"smiles": "CCn1c(C(=O)N2CCC(C(=O)N3CCN(c4ccccn4)CC3)CC2)cc2sccc21", "% Inhibition @ 10 uM": "-3.35%"},
      {"smiles": "CC(=O)Nc1ccc(NC(=O)CN(Cc2ccccc2)S(C)(=O)=O)cc1", "% Inhibition @ 10 uM": "11.6%"},
      {"smiles": "COc1ccc(NC(=O)c2cccnc2Cl)cc1Cl", "% Inhibition @ 10 uM": "4.57%"},
      {"smiles": "Cc1ccc(CN2CNc3c(c(=O)n(C)c(=O)n3C)C2)cc1", "% Inhibition @ 10 uM": "-2.88%"},
      {"smiles": "c1ccc(C2CCC(N3CCN(c4ccccc4)CC3)CC2)cc1", "note": "(stereo not shown)", "% Inhibition @ 10 uM": "-6%"},
      {"smiles": "CC(C)(C)P(=O)(O)c1ccccc1", "% Inhibition @ 10 uM": "-6.29%"},
      {"smiles": "Oc1cccc(CN2CCN(Cc3ccccc3)CC2)c1", "% Inhibition @ 10 uM": "1.96%"},
      {"smiles": "Cc1nc(NCc2ccccc2)c2sc3nc4c(cc3c2n1)COC(C)(C)C4", "% Inhibition @ 10 uM": "-0.386%"},
      {"smiles": "Cc1ccc(S(=O)(=O)N(CC(=O)NCc2ccco2)c2ccc(Cl)cc2)cc1", "% Inhibition @ 10 uM": "4.96%"},
      {"smiles": "COc1ccc(-c2cc(-c3nc4c5c(ncn4n3)CCC5)[nH]n2)cc1", "% Inhibition @ 10 uM": "1.08%"},
      {"smiles": "COc1cc(-c2[nH]nc3c2C(c2c[nH]nc2-c2ccc(F)cc2)C(C#N)=C(N)O3)cc(OC)c1OC", "note": "(stereo not shown)", "% Inhibition @ 10 uM": "2.32%"},
      {"smiles": "CCOc1ccc(-c2cc(C(=O)NCc3ccccn3)c3ccccc3n2)cc1", "% Inhibition @ 10 uM": "-0.519%"}
    ]}
  ]
}
